Assay results published in the supplement of paper PMC3334620.
Whole data set: some 33,000 sequences, median “E-score (-0.5 to 0.5)” near -0.036, cut for the highest 2% near 0.37. The list shows a part of the results.

What follows are sequences tested against T1, Yer064c (UniProt P40041) (assay: PBM E-score (8-mer binding enrichment) (E-score (-0.5 to 0.5)); higher = stronger / more preferred TF binding; most listed sequences are background and not binding sites). Conditions: protein concentration: 200 nM; construct: GST-full length.
T1 sequence: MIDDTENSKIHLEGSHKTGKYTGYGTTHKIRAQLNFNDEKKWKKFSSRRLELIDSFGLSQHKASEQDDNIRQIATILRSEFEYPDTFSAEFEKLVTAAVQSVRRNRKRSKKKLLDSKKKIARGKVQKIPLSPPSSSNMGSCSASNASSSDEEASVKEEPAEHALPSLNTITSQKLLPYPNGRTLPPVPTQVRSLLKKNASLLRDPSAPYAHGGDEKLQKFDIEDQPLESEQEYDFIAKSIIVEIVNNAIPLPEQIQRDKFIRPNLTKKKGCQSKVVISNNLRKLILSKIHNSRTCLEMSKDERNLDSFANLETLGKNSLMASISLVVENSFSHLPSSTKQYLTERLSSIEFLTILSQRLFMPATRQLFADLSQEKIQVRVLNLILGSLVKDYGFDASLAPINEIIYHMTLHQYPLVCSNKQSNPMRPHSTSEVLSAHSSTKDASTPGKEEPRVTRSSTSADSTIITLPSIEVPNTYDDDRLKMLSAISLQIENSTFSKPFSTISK
In short: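 PURExpress in vitro transcription/translation supplied GST-tagged yeast transcription factors, either full-length or DNA-binding domain. Applied at about 100-200 nM to universal all-10-mer Agilent arrays double-stranded by primer extension, the bound protein was detected with fluorescent anti-GST. E-scores, modified Wilcoxon-Mann-Whitney statistics, were given by the Universal PBM Analysis Suite to ungapped eight-base words pooled with their reverse complements after masliner normalisation.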

Row | Sequence | PBM E-score
1 | AAGGATGA | 0.162
2 | CATGCACG | -0.143
3 | CACTATTC | -0.0863
4 | CTGGACCA | -0.113
5 | AAGAGATG | 0.068
6 | AAGTTCGG | -0.176
7 | GGTGCCAA | -0.0963
8 | ACACTTGG | 0.0249
9 | ATCGGCTC | -0.013
10 | ACTTCGAG | -0.00878
11 | AGAATTCC | -0.0704
12 | AGGTAGGG | -0.121
13 | AAACATCA | 0.026
14 | AGACGTTA | 0.0328
15 | GACCTTGA | 0.0411
16 | GGGTCTAC | -0.143
17 | GGTCAGGA | -0.138
18 | CTGTTAGA | 0.0663
19 | GGATAGCA | -0.0707
20 | CTTCCTAC | -0.295
21 | CTAACTTA | 0.0276
22 | GAACCAGC | 0.0889
23 | ATAGTGTG | 0.0492
24 | GCACCTGC | -0.266
25 | CACGGATC | -0.127

Row | Sequence | PBM E-score
26 | ACCTAAAT | 0.057
27 | ATCGCAGA | 0.0583
28 | ACTAAGCG | 0.2
29 | ACCCTAAC | -0.114
30 | GTGAGTGA | 0.225
31 | GACTACAC | 0.399
32 | GCCAAAGC | -0.031
33 | AATGATAG | -0.0733
34 | ATCGTTTG | 0.219
35 | TACCGACA | -0.00853
36 | AAATGGTC | -0.0743
37 | CGCATTCC | -0.248
38 | AAAGCCAT | 0.163
39 | ATCTCAGC | 0.0312
40 | AACATCAG | 0.0803
41 | CACAGGGC | -0.193
42 | CACGGCAA | -0.0572
43 | CGTGCCCA | -0.23
44 | TACGGAAA | 2e-05
45 | ACGACACT | 0.0679
46 | AGCCCATC | 0.211
47 | ACAGTCGC | 0.196
48 | AGGCTCGA | -0.186
49 | CCGACCAA | -0.17
50 | GGGCAGCA | -0.0516

Row | Sequence | PBM E-score
51 | CCACTCTC | -0.198
52 | GTTAATAA | 0.117
53 | CTGTCGAC | -0.0328
54 | GCAAGACA | -0.184
55 | TGGCCCAA | -0.31
56 | CCACGGCG | -0.0296
57 | CCGGTGGA | -0.172
58 | ACGAGTGG | -0.0808
59 | AGTGATTG | 0.362
60 | ACGTCGTA | -0.13
61 | ATTCTAGA | 0.0719
62 | AAGGTAGG | -0.0709
63 | CAGGTCAA | -0.193
64 | GGACGCCC | -0.325
65 | TGGTGAAA | -0.263
66 | AACGGTCT | -0.188
67 | AAACACTG | 0.0608
68 | GAGGAAAA | -0.0398
69 | CGATCATA | 0.0235
70 | CCAGGTCG | -0.0791
71 | TAAAACCA | 0.106
72 | GCATGCAA | -0.121
73 | ATCTGCGC | -0.188
74 | ACGCGCTA | -0.124
75 | CAGGCAAG | -0.0893

Row | Sequence | PBM E-score
76 | CTTCAGTA | 0.0859
77 | CGCCGCCC | -0.281
78 | CTGCAGCA | -0.244
79 | ATCCCACA | -0.101
80 | ATTCAGCC | 0.0873
81 | ACGGGGTC | -0.286
82 | CGAAAGAC | 0.0552
83 | GGTGTAAC | 0.05
84 | ACGGCGCA | -0.0171
85 | ACATGAGG | -0.103
86 | ACCGTTGG | -0.106
87 | CATTAGTC | 0.421
88 | CTTTTACA | 0.0266
89 | GCAGGCCA | -0.0647
90 | AGGGTCTA | -0.153
91 | GAATATGA | 0.204
92 | GAAAGAGC | -0.153
93 | CCCAAACG | -0.226
94 | CCCACGGC | -0.171
95 | ATGCACGG | -0.106
96 | CGCTTCAG | -0.167
97 | CATCTTAA | -0.0264
98 | GCACCTCA | -0.0741
99 | AAATGACG | 0.0769
100 | AACCTGAG | -0.154

Row | Sequence | PBM E-score
101 | CTCAACGC | -0.164
102 | CGAGGTAG | -0.0916
103 | AGTGCATC | -0.144
104 | ACAACCCA | -0.0889
105 | CGTCGACG | -0.069
106 | GTAGTTGA | 0.143
107 | AAGGCGGA | -0.14
108 | AAGGGAGG | -0.186
109 | ACGTTATA | 0.0989
110 | AGTGCACC | -0.156
111 | ACACACAG | 0.0924
112 | CATGCGGA | -0.0429
113 | CCAGGATA | -0.179
114 | ACAACGGC | -0.148
115 | GTCTACTA | 0.162
116 | CGCACCCA | -0.178
117 | CAGCACGC | -0.145
118 | ATGATGAG | 0.318
119 | ACCCTCGC | -0.21
120 | CATGAGAG | 0.034
121 | ATACAATA | -0.0154
122 | GTGGATCA | 0.0498
123 | AGGCGTTG | -0.274
124 | ACACCTCC | -0.0443
125 | CTGATGAC | 0.296

Row | Sequence | PBM E-score
126 | ACCAATCT | -0.0242
127 | GCGGATGA | 0.13
128 | CTATCGCC | -0.136
129 | AAGCAACT | -0.0838
130 | GGAATTTA | -0.0855
131 | AACCTCCC | -0.167
132 | CGGTGATA | -0.0395
133 | CGCTAATC | 0.111
134 | CCGTTAGC | 0.00558
135 | CAGATTCC | -0.0951
136 | AAAAAACG | -0.0912
137 | AAATCGTG | 0.166
138 | TACCGCGA | 0.0749
139 | GTGAAAGA | 0.0434
140 | CTGACCTC | -0.00583
141 | AGTAGTTG | 0.0575
142 | CACCTCAC | -0.00655
143 | AGGCAGCG | -0.245
144 | ATCAGAAG | 0.062
145 | GCCGGACC | -0.251
146 | CTTGTATC | -0.0365
147 | TGAGTGAA | 0.109
148 | GATGTCCA | -0.203
149 | GAGATACC | -0.0812
150 | CAAGGAAG | 0.017

Row | Sequence | PBM E-score
151 | GTAGGGCA | -0.218
152 | ATCCCTTG | -0.0643
153 | AATCACCC | 0.426
154 | GCTGTAAC | 0.115
155 | AGAGGGGC | -0.289
156 | AAAGATAC | -0.041
157 | ACCGCCTC | -0.307
158 | CTATTCAG | 0.0874
159 | AAGGTCGC | -0.278
160 | ACAGATCT | -0.118
161 | ACGGGACA | -0.204
162 | CAGATTTA | 0.168
163 | AAGGCAAC | 0.0345
164 | AAGATCCT | -0.00223
165 | GCCCAAGA | -0.156
166 | AATTGAGG | -0.28
167 | ATATATCA | -0.0122
168 | ACCATGAA | 0.141
169 | ACCAAACT | -0.129
170 | GTGGTCCA | 0.00143
171 | GTGCATAA | 0.0645
172 | CGGGCGCC | -0.34
